From US20250368649A1, “TETRAHYDROPYRIDOPYRIMIDINE PAN-KRAS INHIBITORS” (Mirati Therapeutics, Inc., priority 2022, published 2025)

How the values were obtained:
[1] = tested on: H727 cells; experiment: Inhibition of KRas-mediated phosphorylation of ERK (Cisbio HTRF pERK), H727 cells; assay type: cell-based; settings: Homo sapiens, NCI-H727, 3 h, 3 hr compound incubation, Cisbio pERK HTRF
[2] = tested on: MKN1 cells; experiment: Inhibition of KRas-mediated phosphorylation of ERK (Cisbio HTRF pERK), MKN1 cells; assay type: cell-based; settings: Homo sapiens, MKN-1, 3 hour compound incubation
Method in brief: (§1)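 Day 1: 6,000 cells/well plated, RPMI + 10% FBS.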

[3] = tested on: ASPC1 cells; experiment: Inhibition of KRas-mediated phosphorylation of ERK (Cisbio HTRF pERK), ASPC1 cells; assay type: cell-based; settings: Homo sapiens, ASPC1, 3 h, AsPC-1 cells; 3 hr compound incubation; Cisbio pERK HTRF
[4] = target: KRas WT (Homo sapiens, UniProt P01116); experiment: KRas binding assay (TR-FRET displacement), KRas WT; settings: single point, 10 nM compound
[5] = target: KRas Q61H (Homo sapiens, UniProt P01116, Q61H); experiment: KRas binding assay (TR-FRET displacement), KRas Q61H; settings: single point, 10 nM compound
[6] = tested on: H358 cells; experiment: Inhibition of KRas-mediated phosphorylation of ERK (Cisbio HTRF pERK), H358 cells; assay type: cell-based; settings: Homo sapiens; for IC50: NCI-H358, 3 h, 3 hr compound incubation, Cisbio pERK HTRF; for inhibition at 0.1 µM: NCI-H358, single point at 100 nM, 3 hrs compound incubation
[7] = target: KRas G12A (Homo sapiens, UniProt P01116, G12A); assay type: binding; settings: single point, 10 nM compound, read-out: Binding to KRas (% inhibition at 10 nM) G12A
[8] = target: KRas G13D (Homo sapiens, UniProt P01116, G13D); assay type: binding; settings: single point, 10 nM compound, read-out: Binding to KRas (% inhibition at 10 nM) G13D
[9] = tested on: HCT116 cells; experiment: Inhibition of KRas-mediated phosphorylation of ERK (Cisbio HTRF pERK), HCT116 cells; assay type: cell-based; settings: Homo sapiens; for IC50: HCT-116, 3 h, 3 hr compound incubation, Cisbio pERK HTRF; for inhibition at 0.1 µM: HCT-116, single point at 100 nM, 3 hrs compound incubation
[10] = target: KRas G12S (Homo sapiens, UniProt P01116, G12S); assay type: binding; settings: single point, 10 nM compound, read-out: Binding to KRas (% inhibition at 10 nM) G12S
[11] = tested on: PSN1 cells; experiment: Inhibition of KRas-mediated phosphorylation of ERK (Cisbio HTRF pERK), PSN1 cells; assay type: cell-based; settings: Homo sapiens, PSN1, 3 h, 3 hour compound incubation, Cisbio pERK HTRF
Method in brief: as §1

[12] = target: KRas G12C (Homo sapiens, UniProt P01116, G12C); assay type: binding; settings: single point, 10 nM compound, read-out: Binding to KRas (% inhibition at 10 nM) G12C
[13] = tested on: H460 cells; experiment: Inhibition of KRas-mediated phosphorylation of ERK (Cisbio HTRF pERK), H460 cells; assay type: cell-based; settings: Homo sapiens; for IC50: NCI-H460, 3 h, 3 hr compound incubation, Cisbio pERK HTRF; for inhibition at 0.1 µM: NCI-H460, single point at 100 nM, 3 hrs compound incubation
[14] = tested on: A549 cells; experiment: Inhibition of KRas-mediated phosphorylation of ERK (Cisbio HTRF pERK), A549 cells; assay type: cell-based; settings: Homo sapiens; for IC50: A549, 3 h, 3 hr compound incubation, Cisbio pERK HTRF; for inhibition at 0.1 µM: single point at 100 nM, 3 hrs compound incubation

Row | SMILES | IC50 [1] [nM] | IC50 [2] [nM] | IC50 [3] [nM] | inhibition at 0.01 µM [4] [%] | inhibition at 0.01 µM [5] [%] | IC50 [6] [nM] | inhibition at 0.1 µM [6] [%] | inhibition at 0.01 µM [7] [%] | inhibition at 0.01 µM [8] [%] | IC50 [9] [nM] | inhibition at 0.1 µM [9] [%] | inhibition at 0.01 µM [10] [%] | IC50 [11] [nM] | inhibition at 0.01 µM [12] [%] | IC50 [13] [nM] | inhibition at 0.1 µM [13] [%] | IC50 [14] [nM] | inhibition at 0.1 µM [14] [%]
1 | CCc1c(F)ccc2cc(O)cc(N3CCc4c(nc(OC[C@@]56CCCN5C[C@H](F)C6)nc4N4CCCn5nc(C(=O)N6C7COCC6C7)cc5C4)C3)c12 [Example 325, 3-oxa-6-azabicyclo[3.1.1]heptan-6-yl(5-(7-(8-ethyl-7-fluoro-3-hydroxynaphthalen-1-yl)-2-(((2R,7aS)-2-fluorohexahydro-1H-pyrrolizin-7a-yl)methoxy)-5,6,7,8-tetrahydropyrido[3,4-d]pyrimidin-4-yl)-5,6,7,8-tetrahydro-4H-pyrazolo[1,5-a][1,4]diazepin-2-yl)methanone] | 2 | 7.8 | 2 | 95 | 96 | 2 | 99 | 96 | 96 | 71 | 52 | 99 | 2220 | 99 | 36 | 76 | 17 | 88
2 | CCc1c(F)ccc2cc(O)cc(N3CCc4c(nc(OC[C@@]56CCCN5C[C@H](F)C6)nc4N4CCCn5nc(C(=O)N6CC7CC(C6)O7)cc5C4)C3)c12 [Example 327, 6-oxa-3-azabicyclo[3.1.1]heptan-3-yl(5-(7-(8-ethyl-7-fluoro-3-hydroxynaphthalen-1-yl)-2-(((2R,7aS)-2-fluorohexahydro-1H-pyrrolizin-7a-yl)methoxy)-5,6,7,8-tetrahydropyrido[3,4-d]pyrimidin-4-yl)-5,6,7,8-tetrahydro-4H-pyrazolo[1,5-a][1,4]diazepin-2-yl)methanone] | 3 | 6.6 | 3 | 92 | 96 | 3 | 97 | 83 | 96 | 114 | 47 | 96 | 3610 | 99 | 56 | 66 | 17 | 88
